{
  "source": "the supplement of paper PMC10126150",
  "note": "Values marked as one replicate rest on one cluster of the flow cell; about a third of the high ones do not repeat.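 Note: ATP exposure 15 min at 22 °C before imaging.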",
  "data": [
    {"system": "ATP", "test": "switch fluorescence ratio, 500 uM ATP over buffer (Cy3 cluster intensity, sum of 5 cycles each) (fold (ratio)); higher = stronger signal-on switching upon ATP binding; sequences stand for … in TCGTCGGCAGCGTCAGATGTGTATAAGAGACAGTTTTTTTTTTTTTTTTTTTTTTTTT…TC", "details": "aptamer strand: ATP DNA aptamer (quencher-CACCTGGGGGAGTATTGCGGAGGAAGG + anchor), 100 nM annealed; ATP concentration: 500 uM; one replicate", "how_it_was_run": "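Clusters carrying Cy3-labelled switching strands on a modified Illumina MiSeq flow-cell were annealed to 100 nM quencher-labelled ATP aptamer and imaged in selection buffer. They were imaged again after 15 min with 500 uM ATP at 22 °C, over five buffer/ATP cycles with NaOH stripping and re-annealing in between. For each cluster, the fluorescence ratio is the summed Cy3 intensity of the target cycles divided by that of the buffer cycles, averaged per switch-domain sequence. Clusters outside 100-1000 RFU were left out.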", "values": [
      {"sequence": "GACCCAAAGA", "switch fluorescence ratio": 1.17},
      {"sequence": "GACCCGAGGC", "switch fluorescence ratio": 1.06},
      {"sequence": "GACCCGGCCC", "switch fluorescence ratio": 1.03},
      {"sequence": "GACCCTTGCA", "switch fluorescence ratio": 0.985},
      {"sequence": "GACCGAGACG", "switch fluorescence ratio": 1.13},
      {"sequence": "GACCGATACA", "switch fluorescence ratio": 1.17},
      {"sequence": "GACCGCGTGC", "switch fluorescence ratio": 1.67},
      {"sequence": "GACCGGTGAA", "switch fluorescence ratio": 1.01},
      {"sequence": "GACCGTATAG", "switch fluorescence ratio": 1},
      {"sequence": "GACCGTCTAG", "switch fluorescence ratio": 1.01},
      {"sequence": "GACCGTTACA", "switch fluorescence ratio": 1.33},
      {"sequence": "GACCTACTCG", "switch fluorescence ratio": 1.12},
      {"sequence": "GACCTATGTG", "switch fluorescence ratio": 1.02},
      {"sequence": "GACCTGATTA", "switch fluorescence ratio": 0.999},
      {"sequence": "GACCTGGCGC", "switch fluorescence ratio": 1.08},
      {"sequence": "GACGAACGGA", "switch fluorescence ratio": 1.28},
      {"sequence": "GACGAACTGA", "switch fluorescence ratio": 0.967},
      {"sequence": "GACGAAGCT", "switch fluorescence ratio": 1.08},
      {"sequence": "GACGACATCT", "switch fluorescence ratio": 1.02},
      {"sequence": "GACGAGCTTT", "switch fluorescence ratio": 1.14},
      {"sequence": "GACGATTAAT", "switch fluorescence ratio": 1.03},
      {"sequence": "GACGATTAG", "switch fluorescence ratio": 1.06},
      {"sequence": "GACGATTTTT", "switch fluorescence ratio": 0.997},
      {"sequence": "GACGCCTTTT", "switch fluorescence ratio": 1.03},
      {"sequence": "GACGCTCGCT", "switch fluorescence ratio": 1.23},
      {"sequence": "GACGGAAAGG", "switch fluorescence ratio": 1.05},
      {"sequence": "GACGGACGG", "switch fluorescence ratio": 1.09},
      {"sequence": "GACGGAGTAA", "switch fluorescence ratio": 2.64},
      {"sequence": "GACGGCAAAC", "switch fluorescence ratio": 1.3},
      {"sequence": "GACGGCACTG", "switch fluorescence ratio": 1.15},
      {"sequence": "GACGGCCTTC", "switch fluorescence ratio": 1.02},
      {"sequence": "GACGGGAGCG", "switch fluorescence ratio": 1.01},
      {"sequence": "GACGGTAGGT", "switch fluorescence ratio": 1.07},
      {"sequence": "GACGTCTCAA", "switch fluorescence ratio": 0.949},
      {"sequence": "GACGTGCTTA", "switch fluorescence ratio": 0.993},
      {"sequence": "GACGTTGATG", "switch fluorescence ratio": 0.962},
      {"sequence": "GACTAAAAGT", "switch fluorescence ratio": 0.957},
      {"sequence": "GACTAACTAG", "switch fluorescence ratio": 0.988},
      {"sequence": "GACTATCTCT", "switch fluorescence ratio": 1},
      {"sequence": "GACTATTCG", "switch fluorescence ratio": 1.01},
      {"sequence": "GACTATTCGT", "switch fluorescence ratio": 1.01},
      {"sequence": "GACTCATCTG", "switch fluorescence ratio": 0.962},
      {"sequence": "GACTCATGGT", "switch fluorescence ratio": 1.02},
      {"sequence": "GACTCTCAAC", "switch fluorescence ratio": 1.06},
      {"sequence": "GACTCTGGCA", "switch fluorescence ratio": 1.06},
      {"sequence": "GACTGATCA", "switch fluorescence ratio": 0.927},
      {"sequence": "GACTGCACTC", "switch fluorescence ratio": 1.76},
      {"sequence": "GACTGCGGCG", "switch fluorescence ratio": 0.976},
      {"sequence": "GACTGGCACT", "switch fluorescence ratio": 1.1},
      {"sequence": "GACTGGCCAT", "switch fluorescence ratio": 1.03},
      {"sequence": "GACTGGGCTT", "switch fluorescence ratio": 0.99},
      {"sequence": "GACTGGGGAA", "switch fluorescence ratio": 1.02},
      {"sequence": "GACTTAACGC", "switch fluorescence ratio": 1.13},
      {"sequence": "GACTTCCGA", "switch fluorescence ratio": 1.99},
      {"sequence": "GACTTCCTGT", "switch fluorescence ratio": 1.07},
      {"sequence": "GACTTCGGCG", "switch fluorescence ratio": 1.09},
      {"sequence": "GACTTGGGCC", "switch fluorescence ratio": 1.03},
      {"sequence": "GAGAAAGTTA", "switch fluorescence ratio": 0.992},
      {"sequence": "GAGAAATAGT", "switch fluorescence ratio": 0.993},
      {"sequence": "GAGAACAGCT", "switch fluorescence ratio": 1.01},
      {"sequence": "GAGAACCTGC", "switch fluorescence ratio": 1.12},
      {"sequence": "GAGAACGGCG", "switch fluorescence ratio": 1.01},
      {"sequence": "GAGAAGATAT", "switch fluorescence ratio": 0.996},
      {"sequence": "GAGAAGGTAG", "switch fluorescence ratio": 0.948},
      {"sequence": "GAGAAGTCGG", "switch fluorescence ratio": 0.958},
      {"sequence": "GAGACAAGTG", "switch fluorescence ratio": 0.991},
      {"sequence": "GAGAGACGGA", "switch fluorescence ratio": 1.1},
      {"sequence": "GAGAGATCCG", "switch fluorescence ratio": 0.965},
      {"sequence": "GAGAGATGT", "switch fluorescence ratio": 0.978},
      {"sequence": "GAGAGCAGTA", "switch fluorescence ratio": 1.12},
      {"sequence": "GAGAGCGCAT", "switch fluorescence ratio": 0.981},
      {"sequence": "GAGAGGAAGA", "switch fluorescence ratio": 1.03},
      {"sequence": "GAGAGGATCT", "switch fluorescence ratio": 0.968},
      {"sequence": "GAGAGTCCTC", "switch fluorescence ratio": 1.01},
      {"sequence": "GAGAGTTCGG", "switch fluorescence ratio": 0.99},
      {"sequence": "GAGAGTTT", "switch fluorescence ratio": 1},
      {"sequence": "GAGATAAGTC", "switch fluorescence ratio": 1.05},
      {"sequence": "GAGATATGAC", "switch fluorescence ratio": 0.967},
      {"sequence": "GAGATCATAC", "switch fluorescence ratio": 1.04},
      {"sequence": "GAGATGCGGT", "switch fluorescence ratio": 0.951},
      {"sequence": "GAGCAACTGG", "switch fluorescence ratio": 1.06},
      {"sequence": "GAGCACCGGC", "switch fluorescence ratio": 1.03},
      {"sequence": "GAGCACGAAT", "switch fluorescence ratio": 1.03},
      {"sequence": "GAGCACTCAA", "switch fluorescence ratio": 0.997},
      {"sequence": "GAGCAGATTT", "switch fluorescence ratio": 0.999},
      {"sequence": "GAGCAGGCCT", "switch fluorescence ratio": 0.999},
      {"sequence": "GAGCCATCTG", "switch fluorescence ratio": 1.01},
      {"sequence": "GAGCCCAAGG", "switch fluorescence ratio": 1.18},
      {"sequence": "GAGCCCCCGG", "switch fluorescence ratio": 0.999},
      {"sequence": "GAGCCGAGGA", "switch fluorescence ratio": 1.25},
      {"sequence": "GAGCCTGGCC", "switch fluorescence ratio": 0.995},
      {"sequence": "GAGCCTGTTC", "switch fluorescence ratio": 0.961},
      {"sequence": "GAGCGCACTT", "switch fluorescence ratio": 1.36},
      {"sequence": "GAGCGCCCGA", "switch fluorescence ratio": 0.994},
      {"sequence": "GAGCGGAACT", "switch fluorescence ratio": 1.09},
      {"sequence": "GAGCGGAGAA", "switch fluorescence ratio": 1.02},
      {"sequence": "GAGCGGTCAT", "switch fluorescence ratio": 1.03},
      {"sequence": "GAGCGTATAG", "switch fluorescence ratio": 1.05},
      {"sequence": "GAGCGTTCAT", "switch fluorescence ratio": 0.981},
      {"sequence": "GAGCTAACA", "switch fluorescence ratio": 0.996},
      {"sequence": "GAGCTAGGTT", "switch fluorescence ratio": 1.04},
      {"sequence": "GAGCTCCACG", "switch fluorescence ratio": 1},
      {"sequence": "GAGCTGCCTA", "switch fluorescence ratio": 1},
      {"sequence": "GAGGAAACGG", "switch fluorescence ratio": 1.02},
      {"sequence": "GAGGAACAAA", "switch fluorescence ratio": 0.973},
      {"sequence": "GAGGAACGTC", "switch fluorescence ratio": 1},
      {"sequence": "GAGGAAGCGG", "switch fluorescence ratio": 1.02},
      {"sequence": "GAGGACCAGC", "switch fluorescence ratio": 1.04},
      {"sequence": "GAGGAGGGTC", "switch fluorescence ratio": 1.02},
      {"sequence": "GAGGAGGTCT", "switch fluorescence ratio": 1.02},
      {"sequence": "GAGGATCATA", "switch fluorescence ratio": 0.972},
      {"sequence": "GAGGATCTTA", "switch fluorescence ratio": 0.974},
      {"sequence": "GAGGATGATA", "switch fluorescence ratio": 1.03},
      {"sequence": "GAGGATTGAG", "switch fluorescence ratio": 1.03},
      {"sequence": "GAGGATTTTA", "switch fluorescence ratio": 0.983},
      {"sequence": "GAGGCACGTA", "switch fluorescence ratio": 1.03},
      {"sequence": "GAGGCAGATC", "switch fluorescence ratio": 1.29},
      {"sequence": "GAGGCCAGTG", "switch fluorescence ratio": 1.15},
      {"sequence": "GAGGCCTGTG", "switch fluorescence ratio": 1.02},
      {"sequence": "GAGGCGTGAA", "switch fluorescence ratio": 1.02},
      {"sequence": "GAGGGAAAGA", "switch fluorescence ratio": 0.957},
      {"sequence": "GAGGGAACGT", "switch fluorescence ratio": 1.04},
      {"sequence": "GAGGGACAGC", "switch fluorescence ratio": 1.04},
      {"sequence": "GAGGGACCAA", "switch fluorescence ratio": 1.02},
      {"sequence": "GAGGGATTAT", "switch fluorescence ratio": 1.04},
      {"sequence": "GAGGGCATAC", "switch fluorescence ratio": 1.67},
      {"sequence": "GAGGGCCAAC", "switch fluorescence ratio": 0.95},
      {"sequence": "GAGGGCTCAG", "switch fluorescence ratio": 0.993},
      {"sequence": "GAGGGCTGGT", "switch fluorescence ratio": 0.995},
      {"sequence": "GAGGGTAAAG", "switch fluorescence ratio": 1},
      {"sequence": "GAGGGTAGC", "switch fluorescence ratio": 0.948},
      {"sequence": "GAGGGTCAGT", "switch fluorescence ratio": 0.959},
      {"sequence": "GAGGGTGGT", "switch fluorescence ratio": 1.07},
      {"sequence": "GAGGTAATAT", "switch fluorescence ratio": 1.52},
      {"sequence": "GAGGTAATTT", "switch fluorescence ratio": 0.963},
      {"sequence": "GAGGTGAGCG", "switch fluorescence ratio": 1},
      {"sequence": "GAGGTGTCCA", "switch fluorescence ratio": 1.01},
      {"sequence": "GAGTAAAAA", "switch fluorescence ratio": 0.983},
      {"sequence": "GAGTAAATTT", "switch fluorescence ratio": 0.964},
      {"sequence": "GAGTACTGCT", "switch fluorescence ratio": 0.984},
      {"sequence": "GAGTAGTCC", "switch fluorescence ratio": 0.943},
      {"sequence": "GAGTATACTA", "switch fluorescence ratio": 0.991},
      {"sequence": "GAGTATAGCA", "switch fluorescence ratio": 1.04},
      {"sequence": "GAGTATTCGT", "switch fluorescence ratio": 0.993},
      {"sequence": "GAGTATTGTG", "switch fluorescence ratio": 0.99},
      {"sequence": "GAGTCAAAGA", "switch fluorescence ratio": 0.994},
      {"sequence": "GAGTCAAGT", "switch fluorescence ratio": 0.98},
      {"sequence": "GAGTCAGTTC", "switch fluorescence ratio": 1.06},
      {"sequence": "GAGTCCGTTC", "switch fluorescence ratio": 1.26},
      {"sequence": "GAGTCGACGA", "switch fluorescence ratio": 1.04},
      {"sequence": "GAGTCGGATA", "switch fluorescence ratio": 1.01},
      {"sequence": "GAGTCTTGTC", "switch fluorescence ratio": 1.05},
      {"sequence": "GAGTGCCA", "switch fluorescence ratio": 0.999}
    ]}
  ]
}
